Experimental data from the supplement of paper PMC10126150.
Sequences with one replicate were seen in a single cluster, so their values are uncertain.
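Note: ATP exposure 15 min at 22 °C before imaging.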

What follows are sequences tested on ATP (assay: switch fluorescence ratio, 500 uM ATP over buffer (Cy3 cluster intensity, sum of 5 cycles each) (fold (ratio)); higher = stronger signal-on switching upon ATP binding; sequences stand for … in TCGTCGGCAGCGTCAGATGTGTATAAGAGACAGTTTTTTTTTTTTTTTTTTTTTTTTT…TC). Settings: aptamer strand: ATP DNA aptamer (quencher-CACCTGGGGGAGTATTGCGGAGGAAGG + anchor), 100 nM annealed; ATP concentration: 500 uM; one replicate.
Method in brief: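 Cy3-labelled switching-strand clusters on a modified Illumina MiSeq flow-cell were annealed to 100 nM quencher-labelled ATP aptamer and imaged first in selection buffer, then after 15 min with 500 uM ATP at 22 °C. NaOH stripping and re-annealing separated each of five buffer/ATP cycles, and clusters outside 100-1000 RFU were excluded. The fluorescence ratio sums target-cycle Cy3 intensity over buffer-cycle Cy3 intensity per cluster and averages it per switch-domain sequence.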
With TACACGGGGG the switch fluorescence ratio was 1.07. In the case of TACACGGGTG, the switch fluorescence ratio is reported as 1.3. In the case of TACAGGACAG, the switch fluorescence ratio is reported as 1.06. TACAGGCGCA gave a switch fluorescence ratio of 1. TACAGGCGTC was tested, and the switch fluorescence ratio was 1.05. With TACAGGGTGG the switch fluorescence ratio was 0.985. Work on TACAGTGCAT yielded a switch fluorescence ratio of 1.05. In the case of TACATACCGC, the switch fluorescence ratio is reported as 1.29. TACATACGAG was tested, and the switch fluorescence ratio was 1.4. TACATACGGC showed a switch fluorescence ratio of 1.72. TACATAGACT showed a switch fluorescence ratio of 1.05. In the case of TACATCCAA, the switch fluorescence ratio is reported as 1.05. With TACATCCTCG the switch fluorescence ratio was 1.11. In the case of TACATCTCAG, the switch fluorescence ratio is reported as 0.982. In the case of TACATGACTG, the switch fluorescence ratio is reported as 1.17. For TACATTCTCC, the switch fluorescence ratio was 1.14. For TACATTGGGA, the switch fluorescence ratio was 0.956. TACCAACATA was tested, and the switch fluorescence ratio was 1.06. In the case of TACCAACGCG, the switch fluorescence ratio is reported as 1.04. Work on TACCAACTGA yielded a switch fluorescence ratio of 1.13. For TACCAGGGGC, the switch fluorescence ratio was 1.81. In the case of TACCCAATGA, the switch fluorescence ratio is reported as 1.04. For TACCGAAACA, the switch fluorescence ratio was 0.976. TACCGAGCGA was tested, and the switch fluorescence ratio was 1.93. With TACCGTGCCC the switch fluorescence ratio was 1.13. Sequence TACCTATAGT has a switch fluorescence ratio of 1.04. TACCTCGTTG was tested, and the switch fluorescence ratio was 1.03. TACCTGGAGC showed a switch fluorescence ratio of 1.01. TACCTGTACT gave a switch fluorescence ratio of 1.24. TACCTGTCT was tested, and the switch fluorescence ratio was 0.98. TACCTTAGAC was tested, and the switch fluorescence ratio was 1.14. With TACCTTTCGC the switch fluorescence ratio was 1.51. TACCTTTGTA showed a switch fluorescence ratio of 1.03. TACGACGTTT was tested, and the switch fluorescence ratio was 1.29. TACGACTGCC showed a switch fluorescence ratio of 1.15. TACGAGCCGG was tested, and the switch fluorescence ratio was 1.02. Sequence TACGATCCTT has a switch fluorescence ratio of 1.02. In the case of TACGCAGCCC, the switch fluorescence ratio is reported as 2.07. TACGCATGG was tested, and the switch fluorescence ratio was 1.25. Work on TACGGAAGAT yielded a switch fluorescence ratio of 1.08. TACGGAATGC was tested, and the switch fluorescence ratio was 1.57. TACGGGTGAA gave a switch fluorescence ratio of 1.06. In the case of TACGTAATC, the switch fluorescence ratio is reported as 1.75. TACGTAGGCT was tested, and the switch fluorescence ratio was 1.05. Work on TACGTAGTCG yielded a switch fluorescence ratio of 1.05. TACGTCCGAC gave a switch fluorescence ratio of 1.44. TACGTGCGAC was tested, and the switch fluorescence ratio was 1.16. TACGTTACA showed a switch fluorescence ratio of 1.47. TACGTTGATC gave a switch fluorescence ratio of 1.03. Work on TACTAAATAT yielded a switch fluorescence ratio of 0.987. TACTAACGGT showed a switch fluorescence ratio of 1.42. TACTAAGGAT showed a switch fluorescence ratio of 0.97. TACTAAGGGC was tested, and the switch fluorescence ratio was 1.01. Work on TACTAATATT yielded a switch fluorescence ratio of 1.03. For TACTAATCG, the switch fluorescence ratio was 1.01. With TACTACCAGT the switch fluorescence ratio was 1.07. For TACTACGGCG, the switch fluorescence ratio was 1.04. TACTAGCGAG showed a switch fluorescence ratio of 0.988. Work on TACTAGTTAA yielded a switch fluorescence ratio of 0.989. TACTATATAC gave a switch fluorescence ratio of 2.37. Sequence TACTATCTAG has a switch fluorescence ratio of 0.986. With TACTCACGGA the switch fluorescence ratio was 1.36. With TACTCATTTT the switch fluorescence ratio was 0.969. TACTCCAACT showed a switch fluorescence ratio of 1.16. With TACTCGCTCT the switch fluorescence ratio was 1.06. With TACTGAAGAA the switch fluorescence ratio was 1.05. TACTGCACCT showed a switch fluorescence ratio of 1.15. In the case of TACTGCGACC, the switch fluorescence ratio is reported as 1.31. TACTGCGTCT was tested, and the switch fluorescence ratio was 1. TACTGCTACC gave a switch fluorescence ratio of 1.4. TACTGGGA showed a switch fluorescence ratio of 1.53. For TACTGGTAAT, the switch fluorescence ratio was 0.964. With TACTGTATGG the switch fluorescence ratio was 0.984. Sequence TACTGTATTC has a switch fluorescence ratio of 1.17. TACTGTCTAA was tested, and the switch fluorescence ratio was 1.03. TACTGTGGGC showed a switch fluorescence ratio of 1.02. Sequence TACTGTTCAA has a switch fluorescence ratio of 0.981. TACTTACGCC was tested, and the switch fluorescence ratio was 1.27. Work on TACTTACGTA yielded a switch fluorescence ratio of 1.44. Work on TACTTCATTA yielded a switch fluorescence ratio of 1.02. With TACTTCGGGC the switch fluorescence ratio was 1.02. Sequence TACTTCTTAC has a switch fluorescence ratio of 1.14. Work on TACTTGGGTG yielded a switch fluorescence ratio of 1.03. In the case of TACTTGTAAC, the switch fluorescence ratio is reported as 1.01. TAGAAAAAAA gave a switch fluorescence ratio of 1.03. With TAGAAAAGCT the switch fluorescence ratio was 0.997. In the case of TAGAAATAGA, the switch fluorescence ratio is reported as 1.02. TAGAACGACA was tested, and the switch fluorescence ratio was 1.05. Sequence TAGAACGTTG has a switch fluorescence ratio of 1. TAGAATATCA gave a switch fluorescence ratio of 0.987. TAGAATGTGC was tested, and the switch fluorescence ratio was 0.982. TAGAATGTTG was tested, and the switch fluorescence ratio was 0.978. TAGAATTCAA was tested, and the switch fluorescence ratio was 0.969. For TAGACCA, the switch fluorescence ratio was 0.997. With TAGACCGGAA the switch fluorescence ratio was 1.12. TAGACCTACT gave a switch fluorescence ratio of 1.18. Sequence TAGACGAGGC has a switch fluorescence ratio of 0.989. Sequence TAGACGCAGC has a switch fluorescence ratio of 1.11. With TAGACGCTGC the switch fluorescence ratio was 1.06. With TAGACGGGGT the switch fluorescence ratio was 0.979. In the case of TAGACGTCAT, the switch fluorescence ratio is reported as 1.03. With TAGACTAGCT the switch fluorescence ratio was 1. For TAGAGACGAA, the switch fluorescence ratio was 1. Work on TAGAGAGATT yielded a switch fluorescence ratio of 1. For TAGAGCAGAA, the switch fluorescence ratio was 0.979. For TAGAGCAGGA, the switch fluorescence ratio was 0.999. Work on TAGAGCATGA yielded a switch fluorescence ratio of 0.951. TAGAGCGCTA gave a switch fluorescence ratio of 1.05. TAGAGCGTCG was tested, and the switch fluorescence ratio was 1. TAGAGGATGG was tested, and the switch fluorescence ratio was 1. Work on TAGAGGCATG yielded a switch fluorescence ratio of 1.08. Sequence TAGAGGCCGA has a switch fluorescence ratio of 1.06. In the case of TAGAGGGAAT, the switch fluorescence ratio is reported as 0.984. Work on TAGAGTAGTT yielded a switch fluorescence ratio of 1.01. Sequence TAGAGTCTGT has a switch fluorescence ratio of 1.02. For TAGATAAGTG, the switch fluorescence ratio was 0.976. TAGATATAAT showed a switch fluorescence ratio of 0.997. With TAGATCATAC the switch fluorescence ratio was 1.03. In the case of TAGATCTGCC, the switch fluorescence ratio is reported as 1.06. With TAGATGCATC the switch fluorescence ratio was 0.991. Sequence TAGATTGCG has a switch fluorescence ratio of 1.05. For TAGATTGGCA, the switch fluorescence ratio was 1. TAGCAAAAAT gave a switch fluorescence ratio of 1.08. With TAGCACCCTC the switch fluorescence ratio was 0.992. Sequence TAGCACGCTG has a switch fluorescence ratio of 1.1. With TAGCCAGGTA the switch fluorescence ratio was 1.02. Sequence TAGCCATTAG has a switch fluorescence ratio of 0.94. TAGCCGCACC gave a switch fluorescence ratio of 2.91. TAGCCGTTAC was tested, and the switch fluorescence ratio was 1.16. With TAGCCGTTG the switch fluorescence ratio was 1. Sequence TAGCCTTCGG has a switch fluorescence ratio of 1.01. Sequence TAGCGAAACG has a switch fluorescence ratio of 1.08. Sequence TAGCGAGTGT has a switch fluorescence ratio of 1.02. Work on TAGCGATTTG yielded a switch fluorescence ratio of 1.02. TAGCGCCACA showed a switch fluorescence ratio of 0.998. TAGCGCCAGT showed a switch fluorescence ratio of 0.936. With TAGCGCTGTT the switch fluorescence ratio was 1.05. Work on TAGCGTATTT yielded a switch fluorescence ratio of 0.991. In the case of TAGCGTCTTG, the switch fluorescence ratio is reported as 0.946. In the case of TAGCGTGGCA, the switch fluorescence ratio is reported as 1.05. With TAGCTCATGG the switch fluorescence ratio was 0.982. TAGCTCCTCC gave a switch fluorescence ratio of 1.2. Sequence TAGCTGATTA has a switch fluorescence ratio of 0.984. Work on TAGGAAGTG yielded a switch fluorescence ratio of 0.981. In the case of TAGGAATGGA, the switch fluorescence ratio is reported as 1.01. With TAGGACCCGC the switch fluorescence ratio was 1.06. TAGGACGAGA gave a switch fluorescence ratio of 1.01. For TAGGACGATG, the switch fluorescence ratio was 0.997. In the case of TAGGAGGATC, the switch fluorescence ratio is reported as 1.01. TAGGATAGGC showed a switch fluorescence ratio of 0.985. TAGGATCTTT gave a switch fluorescence ratio of 1. Sequence TAGGCAACT has a switch fluorescence ratio of 1.06. Work on TAGGCAGGAT yielded a switch fluorescence ratio of 1.09. TAGGCAGTCA showed a switch fluorescence ratio of 1.02. In the case of TAGGCAGTTA, the switch fluorescence ratio is reported as 0.966. With TAGGCATGTA the switch fluorescence ratio was 1.02. Work on TAGGCATGTT yielded a switch fluorescence ratio of 0.955. TAGGCATTGA showed a switch fluorescence ratio of 1.03. TAGGCCCAGA gave a switch fluorescence ratio of 0.959. TAGGCCTGCC was tested, and the switch fluorescence ratio was 1.01. Work on TAGGCCTTAA yielded a switch fluorescence ratio of 1.04. Sequence TAGGCGTGAT has a switch fluorescence ratio of 1.02. For TAGGCGTTGA, the switch fluorescence ratio was 1.1. In the case of TAGGCTCGT, the switch fluorescence ratio is reported as 0.981. In the case of TAGGCTGAGT, the switch fluorescence ratio is reported as 0.947. TAGGCTGGTC was tested, and the switch fluorescence ratio was 1.06. Work on TAGGCTTCAG yielded a switch fluorescence ratio of 0.965. TAGGCTTTAT was tested, and the switch fluorescence ratio was 0.97. In the case of TAGGGACGAT, the switch fluorescence ratio is reported as 0.982. TAGGGATGAA showed a switch fluorescence ratio of 0.952. TAGGGCATT was tested, and the switch fluorescence ratio was 1.01. Sequence TAGGGGACCA has a switch fluorescence ratio of 1.05. Work on TAGGGGCTGC yielded a switch fluorescence ratio of 0.952. For TAGGGGTCGC, the switch fluorescence ratio was 1. With TAGGGTCAAT the switch fluorescence ratio was 1.01. Sequence TAGGGTTTG has a switch fluorescence ratio of 0.997. Work on TAGGTAACGG yielded a switch fluorescence ratio of 0.997. In the case of TAGGTCATCC, the switch fluorescence ratio is reported as 0.983. With TAGGTCGCTC the switch fluorescence ratio was 1.01. TAGGTTACAC gave a switch fluorescence ratio of 1.02. Sequence TAGGTTAGGG has a switch fluorescence ratio of 0.993. TAGGTTGAAG showed a switch fluorescence ratio of 0.949. TAGGTTGACG gave a switch fluorescence ratio of 0.938. TAGGTTGCTG was tested, and the switch fluorescence ratio was 0.988. Sequence TAGGTTTGTT has a switch fluorescence ratio of 0.936. For TAGTACCGCC, the switch fluorescence ratio was 1.18. Work on TAGTACGCTT yielded a switch fluorescence ratio of 1.03. TAGTAGGCAG was tested, and the switch fluorescence ratio was 1.04. TAGTATATGG gave a switch fluorescence ratio of 1.04. In the case of TAGTATGTGA, the switch fluorescence ratio is reported as 1.08. With TAGTCAACGA the switch fluorescence ratio was 1.03. Work on TAGTCAGTTT yielded a switch fluorescence ratio of 0.988. In the case of TAGTCCTGTT, the switch fluorescence ratio is reported as 0.962. Sequence TAGTCTGATA has a switch fluorescence ratio of 0.96. Work on TAGTCTTCCC yielded a switch fluorescence ratio of 1.06. With TAGTGAGAGT the switch fluorescence ratio was 0.999. For TAGTGCAGAT, the switch fluorescence ratio was 0.986. Work on TAGTGCTAAG yielded a switch fluorescence ratio of 1.01. TAGTGCTGT was tested, and the switch fluorescence ratio was 0.984. Sequence TAGTGGATGT has a switch fluorescence ratio of 1.09.
